Assay results taken from the supplement of paper PMC7826260.
The list shows a part of the results. The data describe in vitro nicking of single-stranded DNA by Rep domains (3 µM enzyme, 1 h, 37 °C); shown is the middle of each 90-letter strand. A value is the log2 ratio of uncut reads to the pool without enzyme; strong cutting gives strongly negative numbers. There is no active / inactive call. Reads are scaled to the total; where an enzyme cuts many sequences, the uncut ones exceed 0.

How the values were obtained:
Experiment in all cases: uncleaved DNA left, log2 of reads against the no-enzyme library (log2 ratio); higher = less cleavage (more negative = more Rep cleavage of the k-mer); sequences stand for … in CTCGTCCG…ACCGGAGA
[1] = tested on: T1, Rep nickase domain of Muscovy duck circovirus
T1 sequence (Rep 1-111, printed without the tag): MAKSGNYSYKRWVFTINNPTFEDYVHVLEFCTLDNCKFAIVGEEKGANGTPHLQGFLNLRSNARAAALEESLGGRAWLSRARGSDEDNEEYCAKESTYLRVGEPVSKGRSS
Protocol: (§1)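 A pool of 90-nt single-stranded DNAs with seven random bases just before the constant AC of the nick site (name = the seven bases) was cut by 3 µM recombinant His6-SUMO-tagged Rep nickase domain (300 nM DNA, 50 mM HEPES pH 8.0, 50 mM NaCl, 1 mM MnCl2, 1 h, 37 °C, three replicates). Uncut DNA was amplified and sequenced.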

[2] = tested on: T2, Rep nickase domain of banana bunchy top virus
T2 sequence (Rep 1-94, printed without the tag): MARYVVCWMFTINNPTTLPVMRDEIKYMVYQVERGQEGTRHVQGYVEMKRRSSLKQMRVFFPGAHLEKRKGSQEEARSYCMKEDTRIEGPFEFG
Protocol: as §1

[3] = tested on: T3, Rep nickase domain of cabbage leaf curl virus
T3 sequence (Rep 1-116, printed without the tag): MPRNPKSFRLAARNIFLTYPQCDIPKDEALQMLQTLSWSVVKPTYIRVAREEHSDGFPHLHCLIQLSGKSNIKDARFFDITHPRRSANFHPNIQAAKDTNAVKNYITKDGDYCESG
Protocol: as §1

[4] = tested on: T4, Rep nickase domain of chickpea chlorotic dwarf virus
T4 sequence (Rep 1-124, printed without the tag): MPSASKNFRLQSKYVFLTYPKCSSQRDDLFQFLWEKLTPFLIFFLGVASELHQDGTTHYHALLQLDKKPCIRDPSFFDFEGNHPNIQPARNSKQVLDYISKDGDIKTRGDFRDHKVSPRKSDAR
Protocol: as §1

[5] = tested on: T5, Rep nickase domain of faba bean necrotic yellows virus
T5 sequence (Rep 1-98, printed without the tag): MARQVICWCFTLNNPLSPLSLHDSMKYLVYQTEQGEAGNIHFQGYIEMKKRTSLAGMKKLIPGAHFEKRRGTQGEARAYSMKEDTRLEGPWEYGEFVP
Protocol: as §1

[6] = tested on: T6, Rep nickase domain of maize striate mosaic virus
T6 sequence (Rep 1-117, printed without the tag): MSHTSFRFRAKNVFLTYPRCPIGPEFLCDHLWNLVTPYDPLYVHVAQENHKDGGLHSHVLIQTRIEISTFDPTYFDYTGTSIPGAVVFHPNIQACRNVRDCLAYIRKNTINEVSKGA
Protocol: as §1

[7] = tested on: T7, Rep nickase domain of porcine circovirus 2
T7 sequence (Rep 2-116, printed without the tag): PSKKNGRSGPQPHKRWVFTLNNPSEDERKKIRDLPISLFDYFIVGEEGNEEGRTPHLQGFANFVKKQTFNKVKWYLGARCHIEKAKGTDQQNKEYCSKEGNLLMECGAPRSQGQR
Protocol: as §1

[8] = tested on: T8, Rep nickase domain of tomato golden mosaic virus
T8 sequence (Rep 1-124, printed without the tag): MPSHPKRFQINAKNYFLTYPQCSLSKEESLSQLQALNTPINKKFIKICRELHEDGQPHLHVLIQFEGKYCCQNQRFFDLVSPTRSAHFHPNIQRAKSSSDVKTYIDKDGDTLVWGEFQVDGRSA
Protocol: as §1

[9] = tested on: T9, Rep nickase domain of tomato yellow leaf curl virus
T9 sequence (Rep 1-136, printed without the tag): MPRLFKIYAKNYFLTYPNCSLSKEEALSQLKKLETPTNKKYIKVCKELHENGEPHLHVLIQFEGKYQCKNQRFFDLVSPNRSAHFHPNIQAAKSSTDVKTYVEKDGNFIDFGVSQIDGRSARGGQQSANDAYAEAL
Protocol: as §1

[10] = tested on: T10, Rep nickase domain of wheat dwarf virus
T10 sequence (Rep 1-137, printed without the tag): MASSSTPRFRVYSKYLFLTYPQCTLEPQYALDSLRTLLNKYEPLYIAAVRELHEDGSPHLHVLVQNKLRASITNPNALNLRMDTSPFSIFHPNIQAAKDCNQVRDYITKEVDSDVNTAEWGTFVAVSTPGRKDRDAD
Protocol: as §1

Sequence | uncleaved DNA left (log2) [1] | uncleaved DNA left (log2) [2] | uncleaved DNA left (log2) [3] | uncleaved DNA left (log2) [4] | uncleaved DNA left (log2) [5] | uncleaved DNA left (log2) [6] | uncleaved DNA left (log2) [7] | uncleaved DNA left (log2) [8] | uncleaved DNA left (log2) [9] | uncleaved DNA left (log2) [10]
GTATAAA | 0.134 | 0.129 | 0.427 | 0.954 | 0.238 | 1.67 | 0.219 | 0.123 | 0.0842 | 0.277
TGGTTAC | -0.0406 | 0.0471 | 0.256 | 0.491 | -0.119 | 1.61 | -0.0241 | 0.135 | 0.0516 | -0.0258
GATTAGC | 0.0622 | -0.104 | -0.161 | -0.121 | -0.0294 | -0.815 | 0.0187 | -0.000655 | 0.0941 | -0.0822
TTGTGCA | -0.145 | -0.159 | -0.459 | -0.837 | -0.0226 | -1.13 | -0.229 | -0.0953 | -0.00442 | -0.155
GTCTAAA | 0.227 | 0.111 | 0.372 | 1.02 | 0.167 | 1.8 | 0.068 | 0.222 | 0.0968 | 0.224
AATATTT | -0.788 | -2.97 | -2.73 | -3.1 | -0.00138 | -1.06 | -4.12 | -0.165 | -0.0557 | -0.412
GAAGTAA | 0.154 | 0.145 | 0.296 | 0.464 | -0.0942 | 0.843 | 0.145 | 0.127 | 0.0516 | 0.0917
TGCCCCC | -0.156 | -0.181 | 0.168 | 0.35 | -0.05 | 0.481 | -0.317 | -0.354 | -0.00609 | -0.0306
AGAGATA | 0.0552 | -0.0503 | 0.00204 | 0.246 | 0.0611 | 0.947 | -0.144 | 0.0607 | -0.0929 | 0.00209
AGACGCG | 0.0417 | 0.171 | -0.578 | 0.49 | 0.139 | -0.525 | 0.271 | 0.074 | 0.0406 | 0.0841
GGTACGC | -0.00462 | 0.0437 | 0.7 | 1.71 | -0.0883 | 2 | 0.138 | 0.0616 | 0.125 | 0.171
AGGACCG | -0.039 | 0.00367 | -0.358 | -0.0819 | -0.0298 | -0.569 | 0.143 | 0.0302 | -0.0636 | -0.0725
CCTACAC | 0.0748 | -0.153 | -0.281 | -2.04 | 0.0343 | -0.816 | -0.0995 | -0.14 | -0.171 | -0.209
CCTGTCT | -0.0697 | -0.155 | -0.267 | -1.63 | -0.133 | -0.748 | -0.375 | -0.185 | -0.0696 | -0.225
TTTGGCA | 0.0869 | 0.0485 | -0.127 | -0.589 | 0.0818 | -0.931 | -0.00475 | -0.0326 | -0.0397 | 0.0875
ATGGTGG | -0.101 | -0.228 | -0.267 | -0.209 | -0.209 | -0.845 | 0.0788 | -0.106 | -0.202 | -0.205
TCGGCTC | 0.0329 | 0.0283 | 0.0641 | -0.0354 | -0.0389 | 0.274 | 0.081 | 0.000472 | 0.033 | -0.232
GGCCAAG | 0.0849 | 0.0676 | 0.232 | 0.52 | 0.0664 | -0.0777 | 0.173 | 0.132 | 0.2 | 0.232
GGGCACT | 0.0748 | 0.171 | 0.909 | 2.02 | 0.042 | 2.34 | 0.244 | 0.0444 | 0.0433 | 0.243
AAGCTCT | 0.208 | 0.0416 | -0.122 | -2.43 | 0.0706 | 0.564 | -2.87 | 0.23 | 0.1 | 0.0823
CGACGCC | 0.0771 | 0.0189 | 0.0616 | 0.667 | -0.0664 | 1.49 | 0.0657 | -0.0246 | -0.0379 | 0.114
GTCGTAG | -0.048 | 0.122 | 0.299 | 0.707 | -0.041 | 1.83 | 0.0883 | 0.164 | 0.0338 | 0.102
GGCACAG | 0.00384 | 0.091 | 0.657 | 1.7 | 0.0538 | 1.84 | 0.1 | 0.0897 | 0.0105 | 0.129
AATTGGG | 0.0497 | -0.0556 | -0.732 | -0.297 | 0.0471 | -0.824 | 0.0576 | 0.0446 | 0.0712 | 0.00427
CAACCCC | -0.603 | -0.0813 | -0.142 | -1.5 | -0.108 | -0.329 | -1.45 | -0.0796 | -0.103 | -0.121
ACTGATT | -0.0395 | -0.137 | -0.168 | -0.453 | -0.0284 | 0.275 | -0.452 | 0.0115 | -0.0211 | 0.0665
AGCTGCG | 0.0971 | 0.118 | -0.511 | 0.841 | 0.067 | -0.105 | 0.177 | 0.0206 | 0.00463 | 0.000251
GACCTAG | 0.0782 | 0.149 | -0.517 | -0.447 | 0.179 | -0.944 | 0.109 | 0.164 | 0.211 | 0.14
TCTGCGG | 0.171 | -0.0441 | 0.0562 | 0.278 | -0.0121 | 0.161 | 0.0981 | 0.0331 | -0.0764 | -0.0204
CATCCAA | -0.0299 | -0.123 | -0.0508 | -0.466 | -0.0935 | -0.806 | -0.0158 | -0.179 | -0.0906 | -0.015
